Measurements published in the supplement of paper PMC10441789.
Some of the results follow. Antibody binding of pooled human sera (four to six donors per pool; dilution not stated) to peptides of the Trypanosoma cruzi antigen TSSA on microarrays. Quantile-normalised fluorescence in arbitrary units, mean of duplicate arrays; higher = more binding. No active / inactive call. The uninfected pools are read here as the healthy donors of the same country. The strongest signals lie near the top of the scale (about 60,000).

Tests used:
Assay in all cases: antibody binding signal (normalised fluorescence) (arbitrary fluorescence units); higher = stronger serum antibody binding to peptide
[1] = tested on: pooled sera of chronic Chagas disease patients, Bolivia
Protocol: (§1)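 Microarray of 15-residue peptides over residues 30-55 of Trypanosoma cruzi TSSAII, each with 1 to 10 substitutions at naturally variable positions, probed with one serum pool per country.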

[2] = tested on: pooled sera of chronic Chagas disease patients, Brazil
Protocol: as §1

[3] = tested on: pooled sera of chronic Chagas disease patients, Colombia
Protocol: as §1

[4] = tested on: pooled sera of chronic Chagas disease patients, Mexico
Protocol: as §1

[5] = tested on: pooled sera of chronic Chagas disease patients, USA
Protocol: as §1

[6] = tested on: pooled sera of uninfected people, Argentina
Protocol: as §1

[7] = tested on: pooled sera of uninfected people, Bolivia
Protocol: as §1

[8] = tested on: pooled sera of uninfected people, Brazil
Protocol: as §1

[9] = tested on: pooled sera of uninfected people, Colombia
Protocol: as §1

[10] = tested on: pooled sera of uninfected people, Mexico
Protocol: as §1

[11] = tested on: pooled sera of uninfected people, USA
Protocol: as §1

Sequence | antibody binding signal [1] | antibody binding signal [2] | antibody binding signal [3] | antibody binding signal [4] | antibody binding signal [5] | antibody binding signal [6] | antibody binding signal [7] | antibody binding signal [8] | antibody binding signal [9] | antibody binding signal [10] | antibody binding signal [11]
GTEKKPAAGETPSQP | 1860 | 33100 | 1060 | 1640 | 3630 | 90.1 | 1200 | 1990 | 788 | 410 | 791
SGKDKKPATGEAPSP | 14200 | 43100 | 727 | 708 | 32400 | 922 | 349 | 123 | 738 | 104 | 144
SGKEKKPAAGEAPSP | 1120 | 8870 | 4990 | 9750 | 14400 | 242 | 257 | 107 | 126 | 73.9 | 280
SGTEKKTAAGGTPSQ | 238 | 959 | 16300 | 1110 | 2550 | 189 | 412 | 881 | 224 | 613 | 218
TPPSGTDNKPAAGEA | 43000 | 46100 | 6970 | 25600 | 23200 | 1900 | 758 | 325 | 294 | 720 | 325
GKDNKTATGGAPSPP | 357 | 316 | 2560 | 1520 | 1440 | 289 | 165 | 214 | 179 | 136 | 163
KDNKAATGGAPSQPG | 356 | 10500 | 276 | 248 | 693 | 296 | 1130 | 164 | 142 | 75.8 | 112
PSGKEKKPAAGGTPS | 513 | 9020 | 10900 | 10800 | 8070 | 367 | 228 | 368 | 197 | 81.6 | 178
TDNKTATGGTPSQSG | 1050 | 864 | 752 | 513 | 649 | 445 | 330 | 552 | 171 | 560 | 160
GTDNKPAAGGAPSPS | 549 | 43600 | 2300 | 281 | 742 | 259 | 605 | 563 | 273 | 552 | 149
GTDKKAAAGETPSQP | 1060 | 30800 | 2520 | 406 | 1830 | 101 | 331 | 142 | 614 | 218 | 125
PSGKENKPAAGGAPS | 4180 | 11100 | 11000 | 10900 | 7750 | 8310 | 3500 | 159 | 279 | 497 | 237
PSGTENKTAAGEAPS | 24500 | 41800 | 2080 | 1990 | 12900 | 1200 | 501 | 316 | 423 | 318 | 597
DNKTAAGGAPSQPGA | 1910 | 4040 | 4730 | 550 | 299 | 268 | 423 | 399 | 349 | 850 | 265
TPPSGTDKKAAAGEA | 17300 | 33400 | 5360 | 23900 | 2610 | 478 | 307 | 434 | 339 | 2600 | 201
GKDKKPAAGGAPSQP | 297 | 2410 | 1380 | 508 | 317 | 95.2 | 82.7 | 163 | 80.8 | 87 | 77
KDKKPATGETPSQSG | 5410 | 21900 | 167 | 189 | 18100 | 221 | 149 | 119 | 107 | 451 | 102
TPPSGKENKAAAGGA | 633 | 1880 | 2710 | 2020 | 2520 | 3010 | 875 | 166 | 588 | 188 | 663
KKTAAGGTPSQSGAS | 369 | 239 | 3960 | 441 | 1440 | 284 | 123 | 908 | 115 | 227 | 212
NKAAAGGTPSQSGAS | 249 | 2120 | 3650 | 405 | 1230 | 753 | 867 | 1770 | 368 | 637 | 1120
NKAATGGTPSQPGAS | 596 | 10800 | 1040 | 281 | 457 | 864 | 885 | 656 | 530 | 886 | 1450
NKTATGETPSQSGAS | 4230 | 10500 | 193 | 314 | 5450 | 433 | 781 | 263 | 252 | 417 | 991
KDKKTAAGGAPSQSG | 215 | 267 | 2520 | 308 | 226 | 136 | 94.2 | 131 | 128 | 111 | 130
GKEKKAATGGAPSPS | 335 | 508 | 1580 | 2330 | 2350 | 238 | 301 | 96.6 | 349 | 112 | 101
GKDNKTAAGGAPSPS | 321 | 279 | 3540 | 812 | 686 | 190 | 138 | 180 | 178 | 105 | 133
GKDKKAATGETPSQS | 283 | 6250 | 1710 | 1640 | 7180 | 213 | 104 | 102 | 186 | 79 | 108
TENKPAAGETPSPSG | 764 | 15300 | 517 | 515 | 4670 | 151 | 401 | 217 | 145 | 275 | 1670

Sequence | antibody binding signal [1] | antibody binding signal [2] | antibody binding signal [3] | antibody binding signal [4] | antibody binding signal [5] | antibody binding signal [6] | antibody binding signal [7] | antibody binding signal [8] | antibody binding signal [9] | antibody binding signal [10] | antibody binding signal [11]
SGKDKKAAAGETPSP | 374 | 1020 | 942 | 765 | 1880 | 146 | 123 | 98.2 | 265 | 85.6 | 175
TPPSGKDNKPAAGEA | 14500 | 30400 | 238 | 37200 | 13600 | 336 | 758 | 302 | 286 | 254 | 189
TISTPPSGTENKPAA | 46000 | 53200 | 1350 | 5300 | 40800 | 9660 | 1480 | 777 | 942 | 583 | 1300
PPSGKEKKAAAGGTP | 244 | 2120 | 3330 | 4090 | 3560 | 318 | 191 | 474 | 207 | 81.7 | 106
EKKAAAGGTPSQPGA | 206 | 1200 | 5700 | 397 | 1840 | 266 | 630 | 1570 | 171 | 290 | 758
GKDKKPAAGETPSPP | 245 | 2120 | 900 | 1120 | 1660 | 116 | 118 | 79.4 | 87.4 | 85.5 | 134
GTEKKTATGGAPSQS | 217 | 671 | 1940 | 1100 | 1090 | 331 | 457 | 117 | 105 | 294 | 162
PSGKDKKAATGETPS | 722 | 3510 | 2050 | 2140 | 9020 | 340 | 282 | 153 | 258 | 88.4 | 131
SGKENKTAAGGAPSQ | 532 | 19200 | 10200 | 4700 | 21300 | 5600 | 785 | 153 | 305 | 331 | 221
SGTDKKTAAGGTPSQ | 255 | 648 | 18400 | 996 | 2180 | 204 | 142 | 871 | 403 | 707 | 177
TDNKAATGGAPSQPG | 1790 | 23600 | 564 | 441 | 1230 | 289 | 344 | 309 | 200 | 187 | 154
DNKTATGGTPSPPGA | 1140 | 436 | 407 | 290 | 509 | 222 | 193 | 384 | 532 | 232 | 171
GTDKKTATGGAPSPS | 213 | 518 | 3170 | 576 | 1160 | 295 | 241 | 98.4 | 82.8 | 150 | 120
GTEKKAATGGAPSQP | 343 | 5510 | 953 | 1410 | 1740 | 415 | 1460 | 121 | 732 | 174 | 144
SSTPPSGKENKTATG | 15900 | 13200 | 902 | 5480 | 2780 | 2100 | 1100 | 177 | 663 | 419 | 454
PSGTDNKTAAGETPS | 5420 | 37000 | 542 | 459 | 696 | 143 | 664 | 1080 | 296 | 184 | 211
KDKKTATGEAPSQPG | 3660 | 29000 | 151 | 435 | 13000 | 161 | 89.9 | 126 | 64 | 86.4 | 87.4
EKKPAAGEAPSPPGA | 334 | 17500 | 384 | 259 | 14700 | 133 | 699 | 175 | 107 | 167 | 734
KAATGEAPSQSGASS | 32400 | 33100 | 111 | 160 | 24200 | 415 | 208 | 169 | 171 | 154 | 167
GKDNKAATGETPSQS | 2020 | 20400 | 9440 | 11100 | 13800 | 198 | 316 | 173 | 255 | 129 | 115
DKKPATGETPSQSGA | 23400 | 32700 | 120 | 159 | 23400 | 204 | 397 | 525 | 199 | 1660 | 137
KENKTATGEAPSQPG | 21800 | 41800 | 697 | 475 | 20700 | 213 | 119 | 247 | 142 | 184 | 135
KDKKTAAGEAPSPSG | 193 | 219 | 250 | 194 | 3210 | 130 | 72.8 | 93.9 | 290 | 75 | 111
GKEKKAATGGAPSQS | 207 | 501 | 3870 | 3800 | 2950 | 223 | 112 | 102 | 244 | 84.8 | 134
GKDKKPATGGAPSPP | 729 | 318 | 990 | 1030 | 1700 | 273 | 586 | 90 | 112 | 86.2 | 107
TISTPPSGTDKKTAT | 6550 | 33000 | 5810 | 49800 | 3570 | 371 | 113 | 244 | 164 | 1110 | 161
